Assay results published in publication doi:10.1101/2025.11.15.688632, “Disordered activation domains enhance DNA target search rate of a bZIP transcription factor” (bioRxiv, 2025).

Target: the molecule itself
Test: stopped-flow fluorescence (dilution-driven relaxation kinetics); dimer to monomers; 10.8-200 nM labelled CREB (AlexaFluor 488 or 594 on C323) diluted 11-fold into biophysical buffer (10 mM HEPES pH 7.4, 150 mM NaCl, 10 mM MgCl2, 0.05% Tween-20), 25 °C; paired traces fitted to a two-state model

B1: AlexaFluor 488-labelled pseudo wild-type full-length CREB (natural protein)
chain: not shown
modifications: AlexaFluor 488 maleimide on C323
notes: N-terminal scar left by ULP-1 cleavage of the His6-SUMO tag; C286 and C296 mutated to serine, C323 reintroduced for labelling; numbers count on: isoform B ([…]); also called fluorescently-labelled pseudo wild-type CREB; source: E. coli Rosetta2 (DE3), purified (heat treatment, HisTrap, heparin, anion exchange), labelled by maleimide chemistry; not shown: His6, N-terminal, cleaved; SUMO, …
For B1, the Kd was 26 nM, the koff was 0.1 s⁻¹ and the kon was 8e+06 ± 2e+06 M⁻¹ s⁻¹.
